40 compounds from the supplement of paper PMC7266297 can be followed below.

Where a name gives a salt, the structure may show the parent alone. Some of the results follow. Single values are uncertain, as repeats are few or missing.
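Note: Read-out is SRB optical density at 490 nm, with the control being wells given 0.5% DMSO vehicle, and compound added one day after cells were plated.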

The subject of one assay is KB-3-1. The assay can be described thus: growth inhibition relative to DMSO control (SRB); cervical cancer cells: KB-3-1 is the parent and KB-V1 overexpresses MDR1; SRB is the sulforhodamine B stain; higher = more growth inhibition. The settings on record: 1 µM; 72 h.
In the case of `CC1CCN(CC[C@H]2CCCN2S(=O)(=O)c2cccc(O)c2)CC1`, the growth inhibition is 43%.
The same measure, in the same setting: the result for `Cc1ccc2c(c1)C(=O)C1(O)CCN(c3ccccc3)C1=N2` (single isomer, unassigned; (-)) [(-)-Blebbistatin] reads 13.7%; that for `COc1ccc2cccc(CCNC(C)=O)c2c1` [Agomelatine], 38%.
Same read-out and setting: the result for `Cc1cn([C@H]2C=C[C@@H](CO)O2)c(=O)[nH]c1=O` [Stavudine (d4T)] reads 12.1%; that for `Cc1cc(C)c(Nc2ccnc(Nc3ccc(C#N)cc3)n2)c(C)c1` [Dapivirine (TMC120)], 2.81%.
Turning to `CCc1ccc(CCOc2ccc(CC3SC(=O)NC3=O)cc2)nc1` (stereo not drawn) [Pioglitazone HCl], the growth inhibition amounted to 20.3%.
The same measure, in the same setting: the result for `COc1cc(OC2CCN(C)CC2)ccc1Nc1ncc2c(n1)n(C1CCCC1)c(=O)n2C` reads below 0%; that for `CCOc1cc2ncc(C#N)c(Nc3ccc(F)c(Cl)c3)c2cc1NC(=O)/C=C/CN(C)C` [Pelitinib (EKB-569)], 63.8%.
Compound `CCCNCC(O)COc1ccccc1C(=O)CCc1ccccc1` (stereo not drawn) [Propafenone HCl] came in with a growth inhibition below 0%.
The same measure, in the same setting: for `CN[C@H]1CC[C@@H](c2ccc(Cl)c(Cl)c2)c2ccccc21` [Sertraline HCl] the value was 31.1%; for `CC(C)CCN1c2nc(Nc3cc(F)c(O)c(F)c3)ncc2N(C)C(=O)C1C` (stereo not drawn), 4.84%; for `O=C(CCCCCCC(=O)Nc1ccccc1)NO` [Vorinostat (SAHA, MK0683)], 91.1%.
Compound `CC(C)c1onc(-c2c(Cl)cccc2Cl)c1COc1ccc(/C=C/c2cccc(C(=O)O)c2)c(Cl)c1` returned a growth inhibition of 26.4%.

Another assay concerns KB-V1. The assay is described as above. The settings on record: 1 µM; 72 h.
`CCOc1ccc(NC(C)=O)cc1` [Phenacetin]: the growth inhibition is below 0%.
Same read-out and setting: the result for `Cc1cc(Nc2nc(N[C@@H](C)c3ccc(F)cc3)c(C#N)cc2F)n[nH]1` reads 96.3%.
Still for that read-out and setting: the result for `C=CC(=O)Nc1cccc(Sc2nc(Nc3ccc(N4CCN(C)CC4)cc3)ncc2Cl)c1` reads 72.8%; that for `NC(=O)N1c2ccccc2CC(=O)c2ccccc21` [Oxcarbazepine], 32.3%.
Regarding `COc1cc(NC(=O)c2ccc(-c3ccc(Cl)cc3)o2)cc(OC)c1`, the growth inhibition came out at 50.9%.
The same measure, in the same setting: the result for `Cc1c(NC(=O)OC[C@@H]2COCCN2)cn2ncnc(Nc3ccc4c(cnn4Cc4cccc(F)c4)c3)c12` reads 17.1%.
Still for that read-out and setting: for `CC1(C)CNc2cc(NC(=O)c3cccnc3NCc3ccncc3)ccc21` [Motesanib Diphosphate (AMG-706)] the value was 38.6%; for `COc1cc2ncnc(Sc3nnc(C)s3)c2cc1OC`, below 0%; for `Oc1cc(O)c(Cl)cn1` [Gimeracil], 21.6%.
Still for that read-out and setting: the result for `O=S(=O)(c1ccccc1)c1cnc2c(N3CCNCC3)cccc2c1` reads 6.7%; that for `CCc1cccc(CC)c1NC(=O)N1Cc2[nH]nc(NC(=O)c3ccc(N4CCN(C)CC4)cc3)c2C1`, 29.7%.
The compound `Nc1nc(N)c(N=O)c(OCC2CCCCC2)n1` yielded a growth inhibition of 3.19%.
The same measure, in the same setting: the result for `CC[C@H](c1ccc(O)cc1)[C@@H](CC)c1ccc(O)cc1` [Hexestrol] reads 13.3%.
Same read-out and setting: the result for `CCCCOc1cc(C(=O)NCCN(CC)CC)c2ccccc2n1` [Dibucaine HCl] reads 16.9%.
The same measure, in the same setting: for `COc1cccc(C=NCCN=Cc2cccc(OC)c2[O-])c1[O-].[Cl-].[Mn+3]` the value was 3.67%; for `Cc1ccc(S(=O)(=O)NC(=O)NN2CC3CCCC3C2)cc1` (stereo not drawn) [Gliclazide], 1.06%; for `C[N+]1(C)[C@@H]2C[C@@H](OC(=O)C(O)(c3cccs3)c3cccs3)C[C@H]1[C@@H]1O[C@@H]12` [Tiotropium Bromide hydrate], 7.45%.
`CCN(CC)Cc1ccc2cc(COC(=O)Nc3ccc(C(=O)NO)cc3)ccc2c1` [Givinostat (ITF2357)] yielded a growth inhibition of 88.8%.
The compound `CC[C@@H](C)Nc1cc(C(=O)N[C@H]2C[C@H]3CC[C@@H](C2)N3c2ccc(C(=O)C3CC3)cn2)c(C)cc1C(N)=O` registered a growth inhibition of 29.6%.
For the compound `CCc1nc(N)nc(N)c1-c1ccc(Cl)cc1` [Pyrimethamine], the growth inhibition worked out at 16.2%.
The same measure, in the same setting: for `CC(C)OC(=O)OCOP(=O)(CO[C@H](C)Cn1cnc2c(N)ncnc21)OCOC(=O)OC(C)C` [Tenofovir Disoproxil Fumarate] the value was 30.5%; for `CN(C)CCCCC(=O)Nc1ccc(NC(=S)NC(=O)c2ccc(C(C)(C)C)cc2)cc1` [Tenovin-6], 19.5%.
The compound `O=C(NNc1ccccc1)c1ccncc1` registered a growth inhibition of 19.1%.
Still for that read-out and setting: for `CC[C@H]1OC(=O)[C@H](C)[C@@H](O[C@H]2C[C@@](C)(OC)[C@@H](O)[C@H](C)O2)[C@H](C)[C@@H](O[C@@H]2O[C@H](C)C[C@H](N(C)C)[C@H]2O)[C@](C)(OC)C[C@@H](C)C(=O)[C@H](C)[C@@H](O)[C@]1(C)O` [Clarithromycin] the value was 9.57%.
The compound `CCc1cncnc1N1CCN(Cc2nc3ccc(C(F)(F)F)cc3[nH]2)CC1` came in with a growth inhibition of 47.7%.
On the same count and under the same terms, for `Cc1ccc(Nc2nccc(N(C)c3ccc4c(C)n(C)nc4c3)n2)cc1S(N)(=O)=O` [Pazopanib] the value was 5.45%; for `CCc1c(O)cc(O)c(C(=O)c2ccc(OCCN3CCOCC3)c(OC)c2)c1CC(=O)N(CCOC)CCOC`, below 0%; for `CC1CCN(CC[C@H]2CCCN2S(=O)(=O)c2cccc(O)c2)CC1`, 9.13%.
With `Cc1ccc2c(c1)C(=O)C1(O)CCN(c3ccccc3)C1=N2` (single isomer, unassigned; (-)) [(-)-Blebbistatin], the growth inhibition stood at 1.41%.
The same measure, in the same setting: the result for `COc1ccc2cccc(CCNC(C)=O)c2c1` [Agomelatine] reads 32.8%; that for `Cc1cn([C@H]2C=C[C@@H](CO)O2)c(=O)[nH]c1=O` [Stavudine (d4T)], 34.2%.
In the case of `Cc1cc(C)c(Nc2ccnc(Nc3ccc(C#N)cc3)n2)c(C)c1` [Dapivirine (TMC120)], the growth inhibition was 15.9%.
In turn, `CCc1ccc(CCOc2ccc(CC3SC(=O)NC3=O)cc2)nc1` (stereo not drawn) [Pioglitazone HCl] showed a growth inhibition of 20.3%.
The same measure, in the same setting: for `COc1cc(OC2CCN(C)CC2)ccc1Nc1ncc2c(n1)n(C1CCCC1)c(=O)n2C` the value was 27.9%; for `CCOc1cc2ncc(C#N)c(Nc3ccc(F)c(Cl)c3)c2cc1NC(=O)/C=C/CN(C)C` [Pelitinib (EKB-569)], 56.9%.
The same measure, in the same setting: the result for `CCCNCC(O)COc1ccccc1C(=O)CCc1ccccc1` (stereo not drawn) [Propafenone HCl] reads 18.4%; that for `CN[C@H]1CC[C@@H](c2ccc(Cl)c(Cl)c2)c2ccccc21` [Sertraline HCl], 13.9%; that for `CC(C)CCN1c2nc(Nc3cc(F)c(O)c(F)c3)ncc2N(C)C(=O)C1C` (stereo not drawn), 13.9%.
Still for that read-out and setting: for `O=C(CCCCCCC(=O)Nc1ccccc1)NO` [Vorinostat (SAHA, MK0683)] the value was 83%; for `CC(C)c1onc(-c2c(Cl)cccc2Cl)c1COc1ccc(/C=C/c2cccc(C(=O)O)c2)c(Cl)c1`, 62.8%.
